B1: LINE1-mini (parent)
chain: GGCAGAGCUCAACACAGCGUGGCAAAGUGGCUGUGGCUAGACUGCC

Read counts are not given, so values of variants with three or more changes are uncertain.

The variants in this series derive from B1. Kind of series: self-cleavage, relative activity (ratio to wild type); higher = more cleavage; in vitro, sequencing; the parent is a self-cleaving ribozyme.
Turning to GGCAGUGCUCAACGCAGCGUGGCAAAGUGGCUGAGGCUAGACUGCC [A6U A14G U34A], the self-cleavage turned out to be 0.21.

On to GGCAGUGCUCAACACGGCCUGGCAAAAGGGCUGUCGCUAGACUGGC [A6U A16G G19C G27A U28G G35C C45G], for which the self-cleavage is 0.03. Under GGCAGUGGUCAACACAGCGUAGCAAAGUGGCUGUGGCUAGUCUGCC [A6U C8G G21A A41U] stands 0.17; under GGCAGUGCUCAACCAAGCGUGGCAAAGUGGCUUUGGCUAAACUGCC [A6U A14C C15A G33U G40A], 0.09; under GGCAGUGCUAAACACAGCGUGGCAAAGUGGCUGUGGAUAGACUGCC [A6U C10A C37A], 0.01. Take GGCAGUGCUAAACAUAGCGUGGCAAAGUGGCUGUGGCUAGACUGCC [A6U C10A C15U]: the self-cleavage was 0.06. The figure for GGCAGUGCUCAACCCAGCGUGGCAAAGGGACUGUGGCUUGACUGCC [A6U A14C U28G G30A A39U] is 0.03; for GGCAGUGCUCAACACAGCGUGGCGAAGUGGCUGUGGCUCGACUGCU [A6U A24G A39C C46U] it is 0.05; for GGCAGUGCUCAACACCCCUUGGCAAAGUGGCUGUGGCUAGACUGCC [A6U A16C G17C G19U] it is 0.14.

Regarding GGCAGUGAUCAACACAGCGUGGCGACGUGGCUGUGGCUAGACUGCC [A6U C8A A24G A26C], the self-cleavage came to 0.29. On to GGCAGUGUUCAACACAGCGUGGCAAAGUGGCAGUGGUUAGACUGCC [A6U C8U U32A C37U], for which the self-cleavage was found to be 0.03. The figure for GGCAGUGCUCAACACAGCGUGGCAUAGUGGCUGUGGCUUGACUGCC [A6U A25U A39U] is 0.12. Regarding GGCAGUGCUGAACACAGCGUGGAAAAGUGGCUGUGGCUAGACUGCC [A6U C10G C23A], the self-cleavage came to 0.02. As for GGCAGUGCUCAACACCUCGUACCAAAGUGGCUGUGGCUAGACUGCC [A6U A16C G17U G21A G22C], the self-cleavage was determined as 0.2. Under GGCAGUGCUCAACACAGCGUGGCGAAGUGGCUGUUGCUAGACUGCC [A6U A24G G35U] stands 0.1; under GGCAGUGAUCACCGCAGCGUGUAAAAGUGGCUGUGACUAGACUGCA [A6U C8A A12C A14G G22U C23A G36A C46A], 0.19. For the variant GGCAGUGAACAACACAGCGUGGCAAGGUGUCUGUGGCUAGACUGCC [A6U C8A U9A A26G G30U], the self-cleavage was determined as 0.35. As to GGCAGUGAUCAACACAGCGUGGCAAAGUGGCUGGGGCUAGACUGCC [A6U C8A U34G], the self-cleavage was found to be 0.07. As for GGCAGUGCUCAACUCAGCGUGGCGAAGUUGCUCUGGCUAGACUGCC [A6U A14U A24G G29U G33C], the self-cleavage worked out at 0.03.

In the case of GGCAGUGCUUAACACCGCGUGUCAAAGUGGCUGUGGCUAGACUGCC [A6U C10U A16C G22U], the self-cleavage came to 0.09. GGCAGUGCUCAACACCGCGUCGCAAUGUGGCUGUCGCCAGACUGCC [A6U A16C G21C A26U G35C U38C]: the self-cleavage came to 0.02. The figure for GGCAGUGCUAAACACAGUGUCGCAAAGUGGCUGCGGCUAGACUGCC [A6U C10A C18U G21C U34C] is 0.01; for GGCAGUGGUCAACACAGCGUGGCAAAGUGGCUGUGGCUAGCCUGCC [A6U C8G A41C] it is 0.32; for GGCAGUGGUCAACACAGCGUGGCAAAGUGGCUGUGGCUAGUCUGCC [A6U C8G A41U] it is 0.05.

GGCAGUGCUCAACACAGCGUGGCCGACUGGCUGUGGCUAGACUGCC [A6U A24C A25G G27C]: the self-cleavage came out at 0.71. Under GGCAGUGCUUAACAAAGCGUGGCAAAGUUGCUGUGGCUAGACUGCC [A6U C10U C15A G29U] stands 0.02.

For GGCAGUGCUCAACACCGCGAGGCAAAGUGGCUGGGGCUAGACUGCC [A6U A16C U20A U34G], the self-cleavage worked out at 0.02. Under GGCAGUGCUCAACACUGCGUGGCACAGUGGCUGUGGCUAGACUGCC [A6U A16U A25C] stands 0.07; under GGCAGUGCUCAACACUGCGUAGCAAAGUGGCUGUGGCUAGUCUGCC [A6U A16U G21A A41U], 0.2.

GGCAGUGCUCAACACGGCGUGUCAAAGUGGCUGUGGCUAGACCGCC [A6U A16G G22U U43C]: the self-cleavage turned out to be 0.01. Take GGCAGUGCUCAACACUGCGUGGCAAAGUGGCUCUGGCUAGACUGCC [A6U A16U G33C]: the self-cleavage was 0.08.

As for GGCAGUGCUCAACACAGCGUGGCAAUGUGGCUGUGGCUAGUCUUCC [A6U A26U A41U G44U], the self-cleavage worked out at 0.08. Under GGCAGUGCUCAACUCAGCGUGGCAAUGUGGCUGUGGCUAGACUGCC [A6U A14U A26U] stands 0.82. The figure for GGCAGUGGUCAACACAGCGUGGCAAAGUGGAUGUGGCUAGACUGAC [A6U C8G C31A C45A] is 0.02. Under GGCAGUGCUCAACUCAGCGUGGCAAAGUGGCUGUGGAUAGACUGCC [A6U A14U C37A] stands 0.08; under GGCAGUGCUCAACGCAGCGUGGCAAACUGGCUGUGGCUAGACUGCC [A6U A14G G27C], 0.04. Take GGCAGUGAUCAACACAGCGUGGCGAAGUGGCUGUGGCUAGAAUGCC [A6U C8A A24G C42A]: the self-cleavage is 0.29. The figure for GGCAGUGCUAAACACAGCCUUGCAAAGUGCCUGUGGUUAGACUGCC [A6U C10A G19C G21U G30C C37U] is 0.01; for GGCAGUGCUCAACUCAGCGUGGCAAAGUGGCUAUGGCUACACUGCC [A6U A14U G33A G40C] it is 0.93.

GGCAGUGCUCAACCCAGUGUGGCAAAGUGGCUGUGGCUAGACUGCC [A6U A14C C18U]: the self-cleavage was 0.09. The figure for GGCAGUGUUCAUCACAGCGUGGCAAAGUGGCUGUGGCUAGACUGCC [A6U C8U A12U] is 0.39; for GGCAGUGGUAAACACAGCGUGGCAAAGUGUCUGUGGCUAGACCGCC [A6U C8G C10A G30U U43C] it is 0.01. Regarding GGCAGUGCUCAACGCAGCGUGCCAAAGUGGCUGUGGCUAGACUGCC [A6U A14G G22C], the self-cleavage came out at 0.06. As for GGCAGUGCUCAACACUGCGUGCCAAAGUGGCUGUGGCUAGACUGCC [A6U A16U G22C], the self-cleavage stood at 0.03. Under GGCAGUGCUGAACACAGCGUGACUAAGUGGCUGUGGCUAGACUGCC [A6U C10G G22A A24U] stands 0.06; under GGCAGUGCUAAAGACAGCGUGGCAAAGUGGCUAUGGACACACCACC [A6U C10A C13G G33A C37A U38C G40C U43C G44A], 0.01; under GGCAGUGCUAAACACAGCGUGGCAAGGUGGCUGUGUCUAGACUGCC [A6U C10A A26G G36U], 0.01.

For GGCAGUGCUGAACACAGCGUGGCAAAGUGGCUGUGGCUAUACUACC [A6U C10G G40U G44A], the self-cleavage came out at 0.02. In the case of GGCAGUGCUAAACACAGCGAGGCAAAGUGGCAGAGUCUAGACUGCC [A6U C10A U20A U32A U34A G36U], the self-cleavage came out at 0.01. Turning to GGCAGUGCUAAACACCGCGUGGCAAAGUGGCUGUGGCUAGACUGCC [A6U C10A A16C], the self-cleavage was found to be 0.01. The figure for GGCAGUGCUCAACACAGCGUGGCCAAUUGGCUAUGGCAAAACUGCC [A6U A24C G27U G33A U38A G40A] is 0.03. The figure for GGCAGUGUUCAACACAGUGUGGCAGAGUGGCUGUGGCUAGACUGCC [A6U C8U C18U A25G] is 0.61; for GGCAGUGCUCAACACAGCGUGGCAAGGUGGCCGUGGUUCGACUGCC [A6U A26G U32C C37U A39C] it is 0.12; for GGCAGUGCUCAACACAGCGUGGCAGUGUGGCUGUGGCUAGACAGCC [A6U A25G A26U U43A] it is 0. Under GGCAGUGCUCAACACAGCGUGGCAAAGUGGCUGUGGCUAGUCUGCA [A6U A41U C46A] stands 0.57; under GGCAGUGCUCAACACAGCGUGGCACAGGGGCUGUGGCUCGACUUCC [A6U A25C U28G A39C G44U], 0.07.

(Values after the RNAGym collection of RNA variant scans (doi:10.7554/elife.90254).)
